From the BET-seq Pho4 binding data (Le et al. 2018)
This is one part of the list. The energies were worked out here from pooled read counts, against the library average; single values are noisy.

molecular target: T1, Pho4 (S. cerevisiae) (UniProt P07270); experiment: relative binding free energy (BET-seq); higher = weaker binding; details: reference: library average
T1 sequence: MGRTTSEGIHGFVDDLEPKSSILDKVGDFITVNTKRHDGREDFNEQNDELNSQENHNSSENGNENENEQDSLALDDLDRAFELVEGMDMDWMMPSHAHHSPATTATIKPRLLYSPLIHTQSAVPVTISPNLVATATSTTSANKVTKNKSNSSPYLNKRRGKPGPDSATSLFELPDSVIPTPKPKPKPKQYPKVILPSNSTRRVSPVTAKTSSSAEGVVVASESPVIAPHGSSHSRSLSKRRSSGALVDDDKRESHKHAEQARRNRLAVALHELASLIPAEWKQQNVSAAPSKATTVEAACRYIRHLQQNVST

Sequence | relative binding free energy [kcal/mol]
GGTCACACGTGTAGGG | 0.21
CTCGTCACGTGTAAGG | 0.1
ATAGTCACGTGGAGGG | 0.06
TTATTCACGTGAAGTG | 0.36
CGTGACACGTGGTGAT | -0.15
GAGTTCACGTGTGTTC | 0.38
GGCTCCACGTGTAGGT | 0.15
TTGCGCACGTGGTGCG | -0.07
AGTGTCACGTGCGGGG | -0.08
TTTGACACGTGGCTGA | 0
CTTTGCACGTGGCTTG | 0.04
ATAATCACGTGTAGTG | 0.05
ATTTGCACGTGCTGCG | -0.02
TCTCGCACGTGTGGGT | -0.02
GGTGGCACGTGCAAGA | -0.02
TCAATCACGTGGGTAT | -0.06
GGGGGCACGTGCTTGA | -0.21
TAAGGCACGTGTTTGT | -0.02
GGATGCACGTGTCGTT | 0.1
AGGCTCACGTGACTGG | 0.35
AGTTGCACGTGGGTTG | -0.3
GGCGCCACGTGGGGAG | -0.21
AGTGGCACGTGGGCTA | -0.24
TGGTGCACGTGCTTTG | -0.08
GATATCACGTGTAAGG | 0.37
TATATCACGTGGCGGC | 0.11

Sequence | relative binding free energy [kcal/mol]
GAAGTCACGTGAGAGG | 0.24
ACAGTCACGTGGCGGG | 0.08
TTTTACACGTGGAGGA | 0.12
TAAGGCACGTGTCGTA | -0.19
ATAGGCACGTGTTAAT | -0.24
CTAGGCACGTGTGAAT | 0.13
TCATACACGTGGTTGA | 0.11
TAATACACGTGGTCGT | -0.11
GTTGGCACGTGTGGAC | -0.06
CGGTGCACGTGTAGAT | 0.12
TCGGTCACGTGATTTG | 0.17
TAGATCACGTGTTGCT | 0.11
TTTGACACGTGGGGTA | -0.18
TTTGGCACGTGGGCTT | -0.17
TTTCTCACGTGTAGTT | 0.24
GGGGTCACGTGACCGG | 0.11
TAAGGCACGTGGCGTC | -0.08
GCGTTCACGTGGAAGG | 0.32
TTGACCACGTGGTATT | -0.09
GTATTCACGTGAAGGG | 0.27
GGGTTCACGTGGTGCC | 0.28
GCGTGCACGTGGTCGG | 0.02
TTCTACACGTGGGTGA | -0.13
AGTTGCACGTGCGTGG | -0.1
GGCCTCACGTGGTTAT | 0.27
TGTGACACGTGTGGGG | 0.11

Sequence | relative binding free energy [kcal/mol]
CGTAACACGTGTGGTG | 0.11
TAGTACACGTGCGGTG | 0.02
AGTTACACGTGGAGTT | 0.05
TATGGCACGTGTGTTT | 0.06
ATGTGCACGTGCTTTG | -0.13
GAATGCACGTGTGTGT | 0.18
TGGTACACGTGATGAT | 0.18
CGGCTCACGTGGTTGG | 0.21
AGCAGCACGTGGGTGC | -0.12
TTGCGCACGTGGGTTT | -0.24
GCGGACACGTGAGGTA | 0.47
AGCTTCACGTGTTGTC | 0.32
TTGCACACGTGTATGG | -0.04
GCGTGCACGTGTGGAA | 0.04
TTGGTCACGTGAGTAT | 0.38
GGGGGCACGTGGTGTA | -0.09
GTCTGCACGTGAGGGA | 0.44
AGTAACACGTGTAAGT | 0.06
GGTGCCACGTGTTGGT | 0.07
TAGTTCACGTGGGCAA | 0.28
CGTTGCACGTGTATGG | -0.09
GGGGTCACGTGTCCGG | 0.23
AGGTTCACGTGTTCGC | 0.26
ATGAACACGTGGTGGC | 0.08
TTTTTCACGTGTCGGA | 0.38
TTTATCACGTGGGGTG | -0.03

Sequence | relative binding free energy [kcal/mol]
AGATGCACGTGGATTG | 0.02
ATGGACACGTGATATG | 0.14
TTTTGCACGTGCTAAG | 0.04
ACGGGCACGTGGGGTA | -0.23
ATGCTCACGTGAGTGA | 0.44
AGCGGCACGTGGGTCG | -0.25
GATTACACGTGTGGAA | 0.25
AGTTCCACGTGGAGTT | 0.08
GCGTCCACGTGGTGGT | 0.03
TAGGGCACGTGTATGT | -0.03
GATGCCACGTGATGGT | 0.15
TGGATCACGTGCTTAG | 0.07
GTAAGCACGTGCTGTA | -0.08
TATTTCACGTGTCGAG | 0.19
AAATACACGTGTGGTA | 0.04
AGTTTCACGTGGTGTC | 0.21
AGTGGCACGTGAACGT | 0.02
AAACTCACGTGTTGAT | 0.38
ACATGCACGTGGTGTG | -0.26
TGTTGCACGTGTAACT | 0.16
AAATTCACGTGGTTTG | 0.2
GGAAGCACGTGGGTTC | -0.06
AGGGGCACGTGCAGGT | -0.19
AGACTCACGTGTGTTT | 0.27
AAGAGCACGTGTTTTA | 0
AACGGCACGTGATGGT | 0.02

Sequence | relative binding free energy [kcal/mol]
CTTATCACGTGCTTGT | 0.02
GGCGACACGTGCTGGG | 0.21
ATGAGCACGTGTGTGC | -0.24
TCTGGCACGTGAAGAG | 0.22
ATAGTCACGTGTTTGT | -0.03
TGCCACACGTGTAGGG | 0.13
CGGTGCACGTGAGATG | 0.29
AGATACACGTGGGAGT | -0.03
TACATCACGTGTGTGA | 0.2
TTATGCACGTGGCTGT | -0.16
AGGGTCACGTGGCACA | 0.1
TGTCACACGTGGCAGG | 0.04
GGTGACACGTGGCGGA | 0.03
AAGCTCACGTGGTTTG | 0.27
CTGATCACGTGTGTGG | 0.1
CATGACACGTGGGATG | -0.08
TTGTTCACGTGGGGAG | 0.2
CTAGGCACGTGGAGTA | -0.01
AGTGCCACGTGCTGTT | -0.04
TATACCACGTGTGTTT | -0.1
GCTTTCACGTGATAAG | 0.53
CGTGTCACGTGGATGT | 0.06
TAATTCACGTGTGCGT | 0.26
CGGTGCACGTGTTATT | 0
TGTGACACGTGAGGTA | 0.19
TATATCACGTGGGACG | 0.06

Sequence | relative binding free energy [kcal/mol]
CTAGGCACGTGATTTA | -0.03
GTTGACACGTGTAGTT | 0.17
TGTGACACGTGTGCTA | -0.05
GGTGGCACGTGTTAAA | -0.03
GGTAGCACGTGAAGAT | 0.23
TAATTCACGTGCGGGT | 0.19
TTTTTCACGTGTACGA | 0.41
CGCTGCACGTGGGGTA | -0.27
AGATTCACGTGTCGTT | 0.25
TTAGACACGTGAGGGC | 0.28
GTACGCACGTGATGGG | -0.04
GGTTACACGTGCCGGG | 0.14
TGAGGCACGTGGGGGC | -0.22
CAGTTCACGTGGGGTG | 0.17
CGGTTCACGTGGTAGT | 0.33
GGTGCCACGTGTGGTG | -0.06
GTTATCACGTGCGTTA | 0.14
ATCAGCACGTGGTTTA | -0.16
GGTATCACGTGCAAGG | 0.14
GTTTACACGTGTTCGA | 0.16
TGTTACACGTGAAATA | 0.5
TGTAGCACGTGAGCAG | 0.2
TGTGGCACGTGTGATC | -0.02
AGGGACACGTGCGGGA | -0.08
TAAGTCACGTGGGGCC | -0.02
GATTGCACGTGCGGTT | 0.04

Sequence | relative binding free energy [kcal/mol]
GGTTCCACGTGCGGGA | 0.05
TGTTCCACGTGAATTG | 0.2
TTGGACACGTGTACGT | 0.15
TATAACACGTGTTGAA | 0.07
AGTATCACGTGGGTCC | 0.11
CGGATCACGTGTTGAG | 0.15
GGGCCCACGTGGGGCG | -0.29
TGACTCACGTGGTTTT | 0.1
TATCTCACGTGGTAGA | 0.14
GTGTGCACGTGTCAAG | -0.05
GGTAACACGTGGTGTT | 0.07
GTGTGCACGTGTAAGT | 0.14
TTTGGCACGTGCGAGC | -0.11
GTTGGCACGTGCGCTG | -0.24
ATGGGCACGTGGGTTA | -0.2
TGTAACACGTGCTTTA | -0.05
TGAAACACGTGTGCGG | -0.05
CGGTGCACGTGGGTTT | -0.11
GCGGTCACGTGGGTGC | 0.1
TTGTACACGTGGGGTA | -0.03
TTGCACACGTGGGGGC | -0.14
TAACTCACGTGTTGTG | 0.15
TTATGCACGTGAGGGT | 0.17
GCATGCACGTGGCGTG | -0.13
GCGGCCACGTGTTGGG | 0.03
ACGTTCACGTGTTTTT | 0.29

Sequence | relative binding free energy [kcal/mol]
GGCAACACGTGGGGAG | -0.06
AGGTGCACGTGTGTTA | 0.01
TAGGCCACGTGGGGCG | -0.21
TGAACCACGTGTTTGT | -0.15
TGCGTCACGTGTGCTT | -0.03
CGTTTCACGTGATGGC | 0.27
GGAAGCACGTGATTAG | 0.15
TGGGGCACGTGGGCCG | -0.3
AGGTCCACGTGGCGGT | -0.12
GTCTTCACGTGGAAGT | 0.33
GGTATCACGTGTTGGA | 0.12
AGAGTCACGTGTATGG | 0.19
TGAGGCACGTGCGAGA | -0.05
TAGGGCACGTGAGCCT | 0.23
TAGGGCACGTGAAGAG | 0.07
TTTTACACGTGGATAA | 0.05
CTGGTCACGTGGGTTC | -0.14
AGGTGCACGTGAGTAC | 0.17
ATTTACACGTGTGAGT | 0.19
GGACCCACGTGTGGGG | -0.07
GTAGTCACGTGAATTG | 0.25
TTTGGCACGTGTTCTT | -0.13
CGGCGCACGTGGAGTT | -0.08
ATGTCCACGTGAGGTT | 0.37
TGTGTCACGTGAGACG | 0.27
ACGGTCACGTGTAGAG | 0.21

Sequence | relative binding free energy [kcal/mol]
GCTGTCACGTGGTAAT | 0.21
AATGTCACGTGTATTT | 0.11
TGTGGCACGTGAAGGC | 0.15
ATGTACACGTGTTTCG | 0.19
AGGCACACGTGGGTGC | -0.18
AGTGGCACGTGTCACG | -0.12
TAGTACACGTGGGAAA | 0.07
GGGGGCACGTGGGATT | -0.01
GTTGACACGTGGCGGG | 0.07
AGCTTCACGTGTCGGT | 0.18
TTGATCACGTGAGTAG | 0.31
GTGTGCACGTGAGAGT | 0.17
TGCTGCACGTGTTAAT | 0.16
ATTGTCACGTGTGGGC | 0.07
ATATGCACGTGGGTGT | -0.19
TGTAACACGTGTGCAG | 0.01
TCTATCACGTGTTGGG | 0.13
CAGGACACGTGGTGGG | 0.02
TTTTACACGTGCAATT | 0.02
TATATCACGTGGCGTT | 0.08
TGCTGCACGTGGATTT | 0.03
CCTGGCACGTGTTGGT | -0.11
